In this data set the test system is HepG2 human hepatocytes. Briefly: AMSAcrine degradation by HepG2 cells (OD435 of supernatant). The conditions noted are these: 15 μM AMSAcrine, 4 mM L-NAME or 100 μM L-NIL 6 hours prior.

The structures appear in SMILES notation.

Regarding `CC(=N)NCCCC[C@H](N)C(=O)O` [L-NIL], the “effect of NOS inhibitor on AMSAcrine degradation by hepatocytes” value is listed as “greatly compromised”.

For `COC(=O)[C@@H](N)CCCNC(=N)N[N+](=O)[O-]` [L-NAME, N G -nitro-L-arginine methyl ester], the “effect of NOS inhibitor on AMSAcrine degradation by hepatocytes” value was “greatly compromised”.

These data come from US20120172292A1, “METHOD FOR PROTECTION OF ANTIMICROBIAL AND ANTICANCER DRUGS FROM INACTIVATION BY NITRIC OXIDE” (NEW YORK UNIVERSITY, priority 2009, published 2012).
